# Sequences with one replicate were seen in a single cluster, so their values are uncertain.
# Tested on: ATP
# Assay: switch fluorescence ratio, 500 uM ATP over buffer (Cy3 cluster intensity, sum of 5 cycles each) (fold (ratio)); higher = stronger signal-on switching upon ATP binding; sequences stand for … in TCGTCGGCAGCGTCAGATGTGTATAAGAGACAGTTTTTTTTTTTTTTTTTTTTTTTTT…TC
# Conditions: aptamer strand: ATP DNA aptamer (quencher-CACCTGGGGGAGTATTGCGGAGGAAGG + anchor), 100 nM annealed; ATP concentration: 500 uM; one replicate
# In short: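 Five buffer/ATP imaging cycles were run on Cy3-labelled switching-strand clusters on a modified Illumina MiSeq flow-cell, with NaOH stripping and re-annealing between cycles. In each cycle, clusters annealed to 100 nM quencher-labelled ATP aptamer were imaged in selection buffer, then after 15 min with 500 uM ATP at 22 °C. Per cluster, the fluorescence ratio is summed target-cycle over summed buffer-cycle Cy3 intensity, averaged per switch-domain sequence. Only clusters within 100-1000 RFU were kept.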
# 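Also: ATP exposure 15 min at 22 °C before imaging.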
row,Sequence,switch fluorescence ratio
1,CCAACAGTGG,1.16
2,CCAACCGGGC,1.63
3,CCAACCGTAG,1.22
4,CCAACGAAAT,4.96
5,CCAACGGGT,1.09
6,CCAACTGGTG,3.77
7,CCAACTGT,0.933
8,CCAACTTCTT,0.975
9,CCAAGACGTC,0.969
10,CCAAGATGAA,0.979
11,CCAAGATTTC,1
12,CCAAGCCAAC,3.63
13,CCAAGCTATT,2.64
14,CCAAGGCTCA,1.11
15,CCAAGTACA,1.23
16,CCAAGTAGT,1
17,CCAAGTCAAT,3.16
18,CCAAGTTTAG,1.07
19,CCAATATTAG,1.09
20,CCAATCAGCT,1.02
21,CCAATCCGAC,1.6
22,CCAATCGCTC,2.16
23,CCAATCGGAG,1.01
24,CCAATCGGGT,1.03
25,CCAATGACTT,1.1
26,CCAATTCGAC,1.16

row,Sequence,switch fluorescence ratio
1,CCAATTGGTC,1.06
2,CCACAAAAAA,1.03
3,CCACAAGGG,1.16
4,CCACATCGGA,1.01
5,CCACATGCTC,1.59
6,CCACCAAATT,1.09
7,CCACCATAGT,1.08
8,CCACCCCCCG,1.5
9,CCACCCTATC,1.88
10,CCACCGGGCA,1.43
11,CCACGAGGTC,1.07
12,CCACGAGGTG,2.85
13,CCACGGGGCT,1.07
14,CCACGGTTGT,0.98
15,CCACGTTTAA,1.13
16,CCACTAAGGT,1.01
17,CCACTCTGGA,0.965
18,CCACTGGGAT,1.08
19,CCACTTAATC,1.12
20,CCACTTTATT,0.999
21,CCAGAAGAGT,0.974
22,CCAGAAGGAA,1.05
23,CCAGACACGT,1.01
24,CCAGACAGAA,0.976
25,CCAGACATAG,1.01
26,CCAGACCAAG,1.02

row,Sequence,switch fluorescence ratio
1,CCAGCTATGA,1.21
2,CCAGGAAGGG,1.03
3,CCAGGAGTTC,1.03
4,CCAGGATCCT,1.01
5,CCAGGATTCG,1
6,CCAGGCAGAA,1.07
7,CCAGGCCGCG,1.03
8,CCAGGCTAGC,1.03
9,CCAGGGAGTT,1.09
10,CCAGGGCTGC,1.05
11,CCAGGGTCCG,1.01
12,CCAGGGTTAG,1.01
13,CCAGTAGCTA,1.31
14,CCAGTCGATT,0.942
15,CCAGTCGCTA,1.34
16,CCAGTCGGGT,0.996
17,CCAGTGACGT,0.948
18,CCAGTGGACG,1.01
19,CCAGTGGCGG,0.974
20,CCATACGGGA,1.01
21,CCATAGACA,1.01
22,CCATAGTAGG,1.03
23,CCATAGTGCA,1.05
24,CCATAGTTTC,1.19
25,CCATATATGC,1.08
26,CCATATCTT,0.986

row,Sequence,switch fluorescence ratio
1,CCATCAACAT,1.07
2,CCATCAATTG,1.01
3,CCATCAGCCT,1.1
4,CCATCCCAAG,1.56
5,CCATCCCGGT,1.1
6,CCATCGGAGG,0.988
7,CCATCGGGCC,1.1
8,CCATCTTTTT,0.948
9,CCATGATTGA,0.954
10,CCATGATTGG,1.02
11,CCATGCAAGT,1.39
12,CCATGCGAAG,1.01
13,CCATGGCAGC,1.23
14,CCATGGGGA,1.01
15,CCATGTAGAC,1.15
16,CCATTAAGGC,1.08
17,CCATTACGG,1.04
18,CCATTCATTC,1.03
19,CCATTCTATT,0.975
20,CCATTGCCCT,1.02
21,CCATTGTTAG,1.01
22,CCATTTTGAT,1
23,CCCAAAATA,1.04
24,CCCAAAGATT,0.969
25,CCCACGCTCA,2.8
26,CCCACTAGCA,1.19

row,Sequence,switch fluorescence ratio
1,CCCAGAGGTC,0.99
2,CCCAGATAAG,1.08
3,CCCAGATTGC,1.02
4,CCCAGTTAAC,1.02
5,CCCAGTTAGC,1.08
6,CCCATCTCAC,1.05
7,CCCATTGTGT,1.11
8,CCCATTTAAC,1.04
9,CCCATTTTGA,1.02
10,CCCCACGAAC,4.47
11,CCCCACGGGA,0.986
12,CCCCCACTGC,2.69
13,CCCCCCGTGA,3.4
14,CCCCCGTATT,2.44
15,CCCCGAACTC,2.81
16,CCCCGACTAT,1.94
17,CCCCGAGAAT,1.09
18,CCCCGATTAT,3.32
19,CCCCGCCGCT,1.64
20,CCCCGCTTTG,3.2
21,CCCCGGCCCG,1.19
22,CCCCGTAACT,2.55
23,CCCCGTACGC,3.08
24,CCCCGTGTCG,0.943
25,CCCCTACTAG,1.29
26,CCCCTGTGT,2.15

row,Sequence,switch fluorescence ratio
1,CCCCTTCCCT,1.09
2,CCCGAAGATT,0.998
3,CCCGAAGGGA,1.37
4,CCCGACCTAC,4.12
5,CCCGAGGTTT,1.09
6,CCCGAGTCTG,1.09
7,CCCGATAATT,1.07
8,CCCGATCAAG,1.1
9,CCCGATGCCC,1.29
10,CCCGCACCAG,2.01
11,CCCGCAGGGA,3.42
12,CCCGCCCTCG,2.67
13,CCCGCCGGTA,1.02
14,CCCGCGTTGT,1.18
15,CCCGGAATTG,1.38
16,CCCGGCGGG,0.979
17,CCCGGGCTCC,1.49
18,CCCGTAGGCA,1.03
19,CCCGTGCCGG,0.976
20,CCCGTGGCTT,1.66
21,CCCGTGGGGC,1.04
22,CCCGTGTCGG,1.06
23,CCCTAATCTA,0.999
